For 4 molecules, binding results are on record in PMC2990700.

Protein sequences, listed by entry. Tags and fused reporters are not part of them. Lines headed by an entry give the natural chain unless they say otherwise; changes in a name come on top. Chains listed by the source or under a name are the forms on record and can include a tag or linker.
UniProt Q9DCH4: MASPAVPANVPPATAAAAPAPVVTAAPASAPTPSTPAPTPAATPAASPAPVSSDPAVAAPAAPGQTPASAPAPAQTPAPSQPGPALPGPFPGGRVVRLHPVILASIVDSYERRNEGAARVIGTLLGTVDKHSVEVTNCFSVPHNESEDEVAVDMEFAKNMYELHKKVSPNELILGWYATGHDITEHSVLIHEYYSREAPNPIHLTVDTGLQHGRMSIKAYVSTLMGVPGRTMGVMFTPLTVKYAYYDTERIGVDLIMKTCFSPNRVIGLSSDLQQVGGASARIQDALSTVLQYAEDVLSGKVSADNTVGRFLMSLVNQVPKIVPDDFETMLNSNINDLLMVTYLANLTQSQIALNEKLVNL
S-tagged murine eIF3f active site mutant (HDI to AAA; stable MEF line) (Q9DCH4, form named): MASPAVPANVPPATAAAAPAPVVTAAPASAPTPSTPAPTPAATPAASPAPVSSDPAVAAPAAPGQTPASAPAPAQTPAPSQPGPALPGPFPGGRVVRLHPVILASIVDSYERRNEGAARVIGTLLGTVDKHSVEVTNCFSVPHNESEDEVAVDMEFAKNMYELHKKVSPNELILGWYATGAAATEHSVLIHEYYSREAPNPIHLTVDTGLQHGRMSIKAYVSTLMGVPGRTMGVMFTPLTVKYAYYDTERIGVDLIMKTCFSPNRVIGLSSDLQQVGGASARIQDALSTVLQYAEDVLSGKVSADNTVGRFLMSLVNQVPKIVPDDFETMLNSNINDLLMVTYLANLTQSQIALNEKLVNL

Experiment [1] deals with T1, VSV-tagged Deltex1 (VSV-DTX) (UniProt Q86Y01).
T1 sequence: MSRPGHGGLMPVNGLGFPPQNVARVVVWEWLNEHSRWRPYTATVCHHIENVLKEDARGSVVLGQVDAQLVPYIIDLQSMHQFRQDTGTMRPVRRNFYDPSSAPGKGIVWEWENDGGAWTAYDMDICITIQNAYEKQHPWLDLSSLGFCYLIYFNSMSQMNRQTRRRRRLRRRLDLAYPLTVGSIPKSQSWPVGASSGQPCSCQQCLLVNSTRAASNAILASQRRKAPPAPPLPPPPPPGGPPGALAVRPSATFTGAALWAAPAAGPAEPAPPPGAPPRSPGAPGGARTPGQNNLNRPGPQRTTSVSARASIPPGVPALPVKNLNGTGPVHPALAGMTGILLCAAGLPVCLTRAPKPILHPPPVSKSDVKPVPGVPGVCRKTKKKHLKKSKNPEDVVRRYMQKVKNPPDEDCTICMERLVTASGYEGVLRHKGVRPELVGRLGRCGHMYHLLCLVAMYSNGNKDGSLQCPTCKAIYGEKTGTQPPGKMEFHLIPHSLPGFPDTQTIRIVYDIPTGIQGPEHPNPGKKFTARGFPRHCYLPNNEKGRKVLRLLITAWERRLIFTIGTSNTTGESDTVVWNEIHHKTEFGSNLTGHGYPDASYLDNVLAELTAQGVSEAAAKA
Kind of experiment: co-IP; HEK293T cotransfected with eIF3f forms and VSV-DTX; IP with anti-VSV, precipitates eluted with VSV peptide; Western blot. On the technique in general: In western blotting, separated proteins are transferred to a membrane and probed.

Experiment [2] has as its target S-tagged murine eIF3f active site mutant (HDI to AAA; stable MEF line) (mouse) (UniProt Q9DCH4). In words: co-IP; stable MEF lines with low amounts of VSV-DTX and S-tagged eIF3f; IP with S-tag antibody, Laemmli-eluted; Western blot.

Results are given in words; binding and its absence hold for the method and conditions named. In cells and extracts the contact can be indirect. Some binding calls cover weakened binding; strength is not graded here. For some of these results: Sequences can lack the tags named with a protein.

As for “Flag-tagged murine eIF3f (91–361) (from UniProt Q9DCH4 91-361) (domain or fragment)”, in experiment [1], the binding entry is reported as “binds”.

For “HA-tagged murine eIF3f (1–192) (from UniProt Q9DCH4 1-192) (domain or fragment)”, the binding entry in experiment [1] is reported as “binds”. On to “Flag-tagged murine eIF3f (188–361) (from UniProt Q9DCH4 188-361) (domain or fragment)”, for which, in experiment [1], the binding result was “binds”.

B1: VSV-DTX (stable MEF line) (protein, UniProt Q86Y01 1-620)
chain: MSRPGHGGLMPVNGLGFPPQNVARVVVWEWLNEHSRWRPYTATVCHHIENVLKEDARGSVVLGQVDAQLVPYIIDLQSMHQFRQDTGTMRPVRRNFYDPSSAPGKGIVWEWENDGGAWTAYDMDICITIQNAYEKQHPWLDLSSLGFCYLIYFNSMSQMNRQTRRRRRLRRRLDLAYPLTVGSIPKSQSWPVGASSGQPCSCQQCLLVNSTRAASNAILASQRRKAPPAPPLPPPPPPGGPPGALAVRPSATFTGAALWAAPAAGPAEPAPPPGAPPRSPGAPGGARTPGQNNLNRPGPQRTTSVSARASIPPGVPALPVKNLNGTGPVHPALAGMTGILLCAAGLPVCLTRAPKPILHPPPVSKSDVKPVPGVPGVCRKTKKKHLKKSKNPEDVVRRYMQKVKNPPDEDCTICMERLVTASGYEGVLRHKGVRPELVGRLGRCGHMYHLLCLVAMYSNGNKDGSLQCPTCKAIYGEKTGTQPPGKMEFHLIPHSLPGFPDTQTIRIVYDIPTGIQGPEHPNPGKKFTARGFPRHCYLPNNEKGRKVLRLLITAWERRLIFTIGTSNTTGESDTVVWNEIHHKTEFGSNLTGHGYPDASYLDNVLAELTAQGVSEAAAKA
Regarding B1, the binding result in experiment [2] is “binds”.
